From PMC4336329 (PLoS ONE, 2015) come the findings set out here.

About 14,000 (4.5%) of roughly 310,000 compounds showed an effect of 50% or more. Effects have a minus sign here. This is one part of the list.
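Note: peak tail current of the secondary pulse compared with the same well before compound.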

The target of this assay is human ether-à-go-go-related gene (hERG) potassium channel (human, UniProt Q12809). Description: primary screen, population patch clamp on CHO cells stably expressing hERG.
Sequence of human ether-à-go-go-related gene (hERG) potassium channel (Q12809 whole entry, looked up): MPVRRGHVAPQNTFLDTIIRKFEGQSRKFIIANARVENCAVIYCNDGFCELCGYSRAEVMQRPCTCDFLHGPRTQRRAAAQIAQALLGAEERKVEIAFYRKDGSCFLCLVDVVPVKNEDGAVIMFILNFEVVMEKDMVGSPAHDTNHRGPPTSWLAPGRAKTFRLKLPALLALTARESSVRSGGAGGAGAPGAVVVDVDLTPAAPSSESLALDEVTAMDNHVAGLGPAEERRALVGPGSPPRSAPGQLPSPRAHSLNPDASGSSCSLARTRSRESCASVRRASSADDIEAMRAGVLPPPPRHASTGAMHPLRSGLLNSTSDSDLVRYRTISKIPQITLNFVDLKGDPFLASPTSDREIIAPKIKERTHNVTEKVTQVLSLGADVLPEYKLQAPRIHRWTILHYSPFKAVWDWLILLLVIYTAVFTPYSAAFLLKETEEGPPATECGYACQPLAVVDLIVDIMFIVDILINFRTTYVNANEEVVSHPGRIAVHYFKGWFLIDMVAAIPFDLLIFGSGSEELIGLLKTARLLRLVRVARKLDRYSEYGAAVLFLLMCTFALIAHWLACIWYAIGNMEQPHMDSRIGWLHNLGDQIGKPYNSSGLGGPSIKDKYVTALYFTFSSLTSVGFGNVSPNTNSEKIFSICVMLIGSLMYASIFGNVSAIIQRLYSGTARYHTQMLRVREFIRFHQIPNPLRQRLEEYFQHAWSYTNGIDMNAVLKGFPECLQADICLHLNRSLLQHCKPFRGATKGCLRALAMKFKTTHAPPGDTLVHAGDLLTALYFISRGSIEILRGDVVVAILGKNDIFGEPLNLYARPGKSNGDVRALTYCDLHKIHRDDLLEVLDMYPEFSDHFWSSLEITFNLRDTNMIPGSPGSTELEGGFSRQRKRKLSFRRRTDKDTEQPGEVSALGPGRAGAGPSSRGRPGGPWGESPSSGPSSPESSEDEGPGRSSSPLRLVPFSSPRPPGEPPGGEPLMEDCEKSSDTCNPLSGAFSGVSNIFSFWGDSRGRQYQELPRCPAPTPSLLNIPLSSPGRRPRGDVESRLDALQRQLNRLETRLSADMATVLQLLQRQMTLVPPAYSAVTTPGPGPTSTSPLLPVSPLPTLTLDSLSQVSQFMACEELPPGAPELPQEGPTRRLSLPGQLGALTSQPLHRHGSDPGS
As to `COc1ccc2nc(/C=N/NC(=O)[C@H](C)NC(=O)OC(C)(C)C)ccc2c1`, the “hERG current change (%, negative = inhibition) at 10uM” value is recorded as -7.25%. In the case of `O=C(NCCCCc1ccccc1)Nc1cccc(F)c1`, the “hERG current change (%, negative = inhibition) at 10uM” value is reported as -8.25%. To `COc1ccc(C(=O)/C=C2/c3ccccc3CC(C)(C)N2C)cc1OC.Cl` belongs -11%. To `Cc1ccc(N2C(=O)N(CC(=O)Nc3ccc(F)c(F)c3)C(=O)C2C)cc1` (stereo not shown) belongs 10.4%; to `COc1ccc(C(CC(=O)N2CCC3(CC2)OCCO3)NS(=O)(=O)c2ccc(F)cc2)cc1` (stereo not shown), -2.22%. To `Brc1ccc(/C=N/Nc2ncnc3c2cnn3Cc2ccccc2)cc1` belongs 14.9%. Take `N#CC1(NC(=O)COC(=O)CNC(=O)c2sc3ccccc3c2Cl)CCCCC1`: the “hERG current change (%, negative = inhibition) at 10uM” value is recorded as -29.2%. In the case of `COc1ccc(NC(=O)CCN2C(=O)c3ccccc3S2(=O)=O)c(OC)c1`, the “hERG current change (%, negative = inhibition) at 10uM” value is 1.28%.

For `NNc1ccc(S(=O)(=O)N2CCCCC2)cn1`, the “hERG current change (%, negative = inhibition) at 10uM” value was 15.5%. To `COc1ccc2c(c1)nc(NCCCO)n2Cc1ccccc1` belongs -13.9%; to `Cc1cc(C)n(-c2cc(N3CCN(S(=O)(=O)c4ccc(Br)cc4)CC3)ccc2[N+](=O)[O-])n1`, -21.3%; to `COc1ccc([C@H]2CC(=O)C=C(c3ccc4ncccc4c3)C2)cc1`, -3.25%.

Regarding `Cc1nc2ncnn2c(C)c1CCC(=O)N1CCc2ccccc21`, the “hERG current change (%, negative = inhibition) at 10uM” value was -80.6%.

As for `O=C(COc1ncnc2sccc12)N1CCc2ccccc2C1`, the “hERG current change (%, negative = inhibition) at 10uM” value came to 0.518%. To `CCc1ccc(CN2CCCC(C(=O)Nc3ccc(-c4cscn4)cc3)C2)o1` (stereo not shown) belongs -25.6%; to `CCOc1ccc(NC(=O)c2cc(S(=O)(=O)N3CCOCC3)cs2)cc1`, 12.4%; to `CN1CCN(c2ccccc2NC(=O)COc2ccc(Cl)cc2)CC1`, -59.9%.

Take `Cc1ccc(NC(=O)CSc2ncccc2C(=O)Oc2cccc([N+](=O)[O-])c2)cc1Cl`: the “hERG current change (%, negative = inhibition) at 10uM” value is recorded as 15.6%. To `O=C(c1cccs1)N(Cc1ccc(F)cc1)C1CCS(=O)(=O)C1` (stereo not shown) belongs -21.1%; to `O=C(CSc1nnc(-c2cccs2)n1-c1cccc(Cl)c1)c1cccc2c1OCCO2`, 21.2%; to `CCOc1cc(-c2nnc(NC(=O)c3ccco3)o2)cc(OCC)c1OCC`, -1.13%.

For `O=C(NCCCc1ccc(F)cc1)C1CCC(=O)N(CCCN2CCCC2=O)C1` (stereo not shown), the “hERG current change (%, negative = inhibition) at 10uM” value is 15.1%.

As to `CCN(CC)S(=O)(=O)c1ccc(/C=C/C(=O)Nc2c(C)n(C)n(-c3ccccc3)c2=O)cc1`, the “hERG current change (%, negative = inhibition) at 10uM” value turned out to be 19.4%. To `COc1ccc(NC(=O)c2nc[nH]c2C(=O)N[C@@H](C)c2ccccc2)cc1` belongs -10.4%; to `O=C1CCC(C(=O)N2CCCC(C(=O)c3ccc4ccccc4c3)C2)=NN1` (stereo not shown), -8.31%. `C/C(=N\NC(=O)OC(C)(C)C)c1ccc(-n2ccnc2)cc1`: the “hERG current change (%, negative = inhibition) at 10uM” value is -16.9%.

For `O=C(COc1ccccc1[N+](=O)[O-])Nc1cc(C(=O)O)cc(C(=O)O)c1`, the “hERG current change (%, negative = inhibition) at 10uM” value is given as 15.7%. `COc1ccc(CNC(=O)Cn2c(=O)n(CC(=O)N3CCCCC3)c(=O)c3sccc32)cc1`: the “hERG current change (%, negative = inhibition) at 10uM” value was found to be 15.6%.

`Cl.O=C(O)c1ccc(CNCc2cccc(Cl)c2Cl)cc1`: the “hERG current change (%, negative = inhibition) at 10uM” value is -8.92%. To `O=C1CC(c2cccc(Cl)c2)Cc2nc(N3CCOCC3)ncc21` (stereo not shown) belongs -9.56%; to `CCCCC(=O)NC(=S)Nc1cccc(NC(=O)c2ccco2)c1`, 3.61%; to `CC(=O)Nc1ccc(NS(=O)(=O)c2ccc3c(c2)NC(=O)CC(=O)N3)cc1`, -31.1%. To `COc1c(C(CC(C)C)OC(C)=O)ccc2c1C(=O)OCc1cc(C)cc(O)c1O2` (stereo not shown) belongs -2.31%; to `COc1ccc(-c2cc([C@H]3[C@@H]4C=CCC[C@@]4(C)C(=O)N3Cc3ccccc3)ccc2F)cc1OC`, 12.5%. To `CCN1CCN(CCOc2ccccc2OCc2ccccc2)CC1.O=C(O)C(=O)O` belongs -73.2%. For the molecule `O=C(NCc1nnc2c3ccccc3c(-c3ccccc3)nn12)c1ccccc1Cl`, the “hERG current change (%, negative = inhibition) at 10uM” value is recorded as -78.9%. To `CCC(C)(C)C1CCc2[nH]nc(C(=O)O)c2C1` (stereo not shown) belongs 9.18%; to `O=C(NCCc1ccccc1)C(=O)NCc1ccncc1`, 12.1%; to `O=C1CCN(Cc2ccc([N+](=O)[O-])cc2)CCN1CCO`, -6.93%. To `COc1ccc(NC(=O)c2ccc(Oc3ncccn3)cc2)cc1` belongs 10.4%. To `COc1ccc(CCNC(=O)COc2ncnc3ccccc23)cc1OC` belongs 16.3%; to `CN(CC(=O)Nc1cccc(F)c1)CC(=O)N1CCCCC1`, 1.48%; to `CCN(CC)CC(=O)Nc1nn(-c2ccccc2)nc1C(N)=O`, 0.619%.
